# Test results: PubChem BioAssay AID652104 (National Center for Advancing Translational Sciences (NCATS), 2013)
# The whole screen tested about 410,000 compounds, of which about 7,200 (1.8%) were called active. This list was built around the results that the source calls inconclusive (neither active nor inactive); the mix of calls is not that of the screen. Calls come from the whole dose curve; as a rule, active = well fitted activation curve with a large enough effect; inconclusive = small, poorly fitted or top-dose-only effect, or another doubt; inactive = no such curve, though single readings can be large or run the other way. Potencies of inconclusive entries are left out as doubtful fits.
# Assay: qHTS of TDP-43 Inhibitors; note: nearly all actives have a fitted effect of over 50% in size; for growth rescue (activation): % of control where 0% means no effect
# Details: TDP-43 expressing yeast growth rescue, BacTiter-Glo, 24 h; growth rescue (activation): at 46.1 µM (top of the series) unless noted
# Outline: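 Galactose-induced TDP-43 yeast, OD600=0.02, compound pinned; 24 hr, 30 deg C; BacTiter-Glo luminescence for growth. Inhibitors of TDP-43 toxicity read as activators.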
# Potency is the fitted concentration of half-maximal effect; tags give direction and shape of the fitted curve.
Compound,Potency,growth rescue (activation)
Cc1cccc(-c2noc(-c3cccnc3NCc3ccccc3Cl)n2)c1,inactive,
O=S(=O)(NCC(c1ccco1)S(=O)(=O)c1ccccc1)c1cc(F)ccc1F (centres undefined),"inconclusive [activator, partial curve]",
CSc1cccc(NC(=S)N(Cc2ccccc2)Cc2ccccn2)c1,active: 20 µM,
CC(C)CC(NC(=O)C(NC(=O)OC(C)(C)C)C(C)C)C(N)=O (centres undefined),inactive,
Cc1nc(Oc2ccccc2)c2oc3ccccc3c2n1,"inconclusive [activator, partial curve]",
COc1ccc(S(=O)(=O)N(Cc2nc(-c3ccccc3)no2)C2CCCCC2)cc1,inactive,
CCSc1ccc([C@@H]2[C@@H]3C(=O)N(CC)C(=O)[C@@H]3[C@]3(C(=O)OC)CCCN23)cc1,"inconclusive [activator, single point]",
O=C(CCC(=O)OCCCC(F)(F)C(F)(F)F)NC1CCCCC1,inactive,
Cc1ccc2onc(CC(=O)N3CCN(c4ccc(F)cc4)CC3)c2c1,active: 12.6 µM,
CC(C)CC(=O)N1c2nc(C(C)C)nn2C2(CCCCC2)[C@@H]2CCCC[C@@H]21,inactive,
C=C1C(=O)[C@]23C[C@H]1CCC2[C@]1(C)CCC[C@@](C)(C(=O)O)C1C[C@@H]3O (some centres undefined),,inconclusive: -92.3% [activator]
CC(C)C1C(=O)N(Cc2cn(Cc3ccco3)nn2)CCS(=O)(=O)N1Cc1ccc(-c2ccccc2)cc1 (centres undefined),"inconclusive [activator, full curve]",
Cc1ccccc1NC(=O)c1c(C)[nH]c(=S)c(C#N)c1-c1ccc(Cl)cc1,"inconclusive [activator, partial curve]",
Cc1cccc(N(CC(O)Cn2c3ccccc3c3ccccc32)S(=O)(=O)c2ccc(F)cc2)c1 (centres undefined),inactive,
Cc1ccccc1C(=O)c1cccn1CC(=O)NCC(C)c1ccccc1 (centres undefined),"inconclusive [activator, partial curve]",
CCCCOC(=O)/C=C/c1ccc(OC(=O)OC)c(OC(=O)OC)c1,active: 14.1 µM,
Cc1cc(Cl)ccc1OCC(=O)N/N=C/c1ccc(OC2OC(CO)C(O)C(O)C2O)cc1 (centres undefined),inactive,
Cc1ccc(C2C=CC(C#N)=CN2Cc2ccccc2)cc1 (centres undefined),"inconclusive [activator, partial curve, poor fit]",
C#Cc1ccc(NC(=O)C2(C)CCN2C(=O)C2(c3ccccc3)CC2)cc1 (centres undefined),"inconclusive [activator, single point]",
COc1cccc(C(C)(O)c2nc(-c3csc4ccccc34)cs2)c1 (centres undefined),active: 35.5 µM,
CC1CCN(C2CCN(S(=O)(=O)c3ccc(C(F)(F)F)cc3)CC2)CC1,inactive,
O=C1CC(c2cccs2)c2ccc3ccccc3c2N1 (centres undefined),"inconclusive [activator, full curve]",
O=C(Nc1ccc2c(c1)Cc1ccccc1-2)c1ccncc1,"inconclusive [activator, full curve]",
CCCNC(=O)NC(=O)COc1c(F)c(F)cc(F)c1F,inactive,
Oc1[nH]c2ccccc2c1/C=N/c1nccs1,"inconclusive [activator, partial curve]",

Compound,Potency,growth rescue (activation)
O=C(O)c1cccc2cccc(-c3c4ccc(=O)c(O)c-4oc4c(O)c(O)ccc34)c12,"inconclusive [activator, partial curve]",
Fc1cc(NCc2ccccc2)nc(NCc2ccccc2)n1,"inconclusive [activator, single point]",
CC1CCc2c(sc3nc(-c4cc5cc(Br)ccc5oc4=O)[nH]c(=O)c23)C1 (centres undefined),inactive,
CCn1c2ccccc2c2nnc(SCC(=O)Nc3ccccc3OC)nc21,"inconclusive [activator, partial curve]",
O=[N+]([O-])c1ccc(N/N=C/c2cccnc2)cc1,"inconclusive [activator, single point]",
Cc1ccccc1NC(=O)c1ccc(F)c(S(=O)(=O)NCC2CCCO2)c1 (centres undefined),inactive,
COc1ccccc1NC(=O)Cn1c(=O)sc2ccccc21,"inconclusive [activator, single point]",
O=C(NC(=S)Nc1ccc(Cl)cc1Cl)C1CC1,"inconclusive [activator, full curve]",
O=S(=O)(NCC(c1cccs1)S(=O)(=O)c1ccccc1)c1ccc(F)cc1 (centres undefined),active: 3.55 µM,
Cc1ccc(S(=O)(=O)Nc2ccccc2/C=N/c2nc3ccccc3n2C)cc1,"inconclusive [activator, single point]",
O=C(COc1ccccc1)NCCc1csc(-c2ccc(Cl)cc2)n1,"inconclusive [activator, single point]",
Cc1ccccc1N/N=C/c1c(C)nc2ccccn12,inactive,
CC(C)C(=O)N1CCN(c2nc(-c3ccccc3)c3c(c2C#N)CC(C)(C)OC3)CC1,"inconclusive [activator, partial curve]",
COc1ccc(NC(=O)C2CC(c3ccccc3Cl)=NO2)cc1 (centres undefined),active: 11.2 µM,
CN(C)CCCOC(=O)c1ccccc1,inactive,
COc1ccc(-n2nc([N+](=O)[O-])c(=NCc3cccnc3)n2O)cc1,inactive,
CCN(CC(=O)NCc1cccs1)C(=O)c1ccc(NS(=O)(=O)c2ccc(F)cc2)cc1,inactive,
Fc1ccc(Br)cc1SCCc1ccncc1,active: 11.2 µM,
COc1ccc(C(=O)Nc2ccccc2N2CCOCC2)cc1S(=O)(=O)N1CCCC1,"inconclusive [activator, single point]",
Cc1ccc(/C=C/C(=O)NCCc2ccccc2)o1,"inconclusive [activator, single point]",
O=C(c1ccc(N2CCN(C(=O)c3ccccc3)CC2)cc1)c1cccc(F)c1,"inconclusive [activator, single point]",
CC1=C(C)CC(C(=O)c2ccc(C)cc2)C(C(=O)O)C1 (centres undefined),"inconclusive [activator, full curve]",
CCCCCCCNC(=O)C1(CC2CC(c3ccc(Cl)cc3)=NO2)CCN(C(=O)CCCCCBr)CC1 (centres undefined),inactive,
COC(=O)[C@@]12C[C@@H](CC(=O)NCCCN3CCCC3=O)C(=O)N(Cc3cccc4ccccc34)C1=CCC(C)(C)C2,inactive,
C(=N\Nc1nc(N2CCCCCC2)nc(N2CCCCCC2)n1)/c1ccccc1,active: 22.4 µM,

Compound,Potency,growth rescue (activation)
COC(=O)c1ccc(COc2ncnc3c(Cl)cc(Cl)cc23)o1,"inconclusive [activator, single point]",
COc1ccc(NC(=O)C2(C)Cc3c(-c4ccc(C(N)=O)cc4)ccnc3O2)cc1OC (centres undefined),"inconclusive [activator, full curve, poor fit]",
CCCOc1ccc(F)cc1-c1cc(C(=O)NCc2ccccc2)[nH]n1,"inconclusive [activator, single point]",
Cc1ccc(S(=O)c2ccc(C)cc2)cc1,"inconclusive [activator, single point]",
Cc1sc2nc(-c3cccs3)oc(=O)c2c1C,inactive,
COC(=O)Nc1nnc(COc2cccc(C)c2)s1,"inconclusive [activator, partial curve]",
COc1ccccc1Cc1c(-c2ccco2)nc2ccc(C)cn12,"inconclusive [activator, partial curve]",
COc1ccc(OC)c(NC(=O)c2cc(-c3ccc(Cl)s3)nc3ccccc23)c1,inactive,
Fc1ccc(-c2nc3c4ccccc4ccn3c2CC2CCCCC2)cc1,"inconclusive [activator, partial curve]",
O=[N+]([O-])c1ccc(CNc2ccc(Cl)cc2)s1,"inconclusive [activator, partial curve]",
COc1cc(/C=C/[N+](=O)[O-])ccc1OC(=O)/C=C/c1ccc(F)cc1,active: 0.708 µM,
Cc1ccc(C2CCN(C(=O)c3cnn(-c4cccc(Cl)c4)c3C3CCN(C(=O)OC(C)(C)C)CC3)C2)cc1 (centres undefined),"inconclusive [activator, partial curve]",
CCCN(Cc1cccs1)C(=O)Nc1ccc(OCC)cc1,"inconclusive [activator, partial curve]",
Cc1ccc(S(=O)(=O)N2CCC(=O)CC2c2ccccc2)cc1 (centres undefined),"inconclusive [activator, full curve]",
Cc1ccccc1Cn1ccc(NC(=O)c2nn(C)cc2[N+](=O)[O-])n1,inactive,
Cc1cc(NS(=O)(=O)c2ccccc2)c([N+](=O)[O-])cc1C,"inconclusive [activator, partial curve]",
COc1ccc(N2CCN(Cc3nc4c(c(=O)[nH]c(=O)n4C)n3Cc3ccc(Cl)cc3)CC2)cc1,inactive,
CC1CCCN(S(=O)(=O)c2ccc(NC(=O)c3cccc(-n4cnnn4)c3)cc2)C1 (centres undefined),inactive,
Cc1cc(N/N=C/c2ccccc2[N+](=O)[O-])nc(-n2nc(C)cc2C)n1,"inconclusive [activator, single point]",
Cc1cccc(-c2nnc(SCc3cc(=O)c4cccc(Cl)c4[nH]3)n2C)c1,inactive,
COc1cccc2c1ncc1c(-c3ccc(C)cc3)nn(-c3cccc([N+](=O)[O-])c3)c12,inactive,
Cc1nc2cccnc2n1C1CCN(S(C)(=O)=O)CC1,inactive,
NC(=O)c1c(NC(=S)Nc2ccccc2)sc2c1CCCC2,"inconclusive [activator, full curve]",
CCc1cccc2sc(NC(=O)C3CC3)nc12,"inconclusive [activator, full curve]",
